Results: publication PMC4336329 (PLoS ONE, 2015)
About 2,200 (0.71%) of roughly 310,000 compounds showed an effect of 50% or more. Effects have a minus sign here. The list shows a part of the results.

Molecular target: human ether-à-go-go-related gene (hERG) potassium channel (human, UniProt Q12809)
Test: primary screen, population patch clamp on CHO cells stably expressing hERG

human ether-à-go-go-related gene (hERG) potassium channel, sequence (Q12809 whole entry, looked up): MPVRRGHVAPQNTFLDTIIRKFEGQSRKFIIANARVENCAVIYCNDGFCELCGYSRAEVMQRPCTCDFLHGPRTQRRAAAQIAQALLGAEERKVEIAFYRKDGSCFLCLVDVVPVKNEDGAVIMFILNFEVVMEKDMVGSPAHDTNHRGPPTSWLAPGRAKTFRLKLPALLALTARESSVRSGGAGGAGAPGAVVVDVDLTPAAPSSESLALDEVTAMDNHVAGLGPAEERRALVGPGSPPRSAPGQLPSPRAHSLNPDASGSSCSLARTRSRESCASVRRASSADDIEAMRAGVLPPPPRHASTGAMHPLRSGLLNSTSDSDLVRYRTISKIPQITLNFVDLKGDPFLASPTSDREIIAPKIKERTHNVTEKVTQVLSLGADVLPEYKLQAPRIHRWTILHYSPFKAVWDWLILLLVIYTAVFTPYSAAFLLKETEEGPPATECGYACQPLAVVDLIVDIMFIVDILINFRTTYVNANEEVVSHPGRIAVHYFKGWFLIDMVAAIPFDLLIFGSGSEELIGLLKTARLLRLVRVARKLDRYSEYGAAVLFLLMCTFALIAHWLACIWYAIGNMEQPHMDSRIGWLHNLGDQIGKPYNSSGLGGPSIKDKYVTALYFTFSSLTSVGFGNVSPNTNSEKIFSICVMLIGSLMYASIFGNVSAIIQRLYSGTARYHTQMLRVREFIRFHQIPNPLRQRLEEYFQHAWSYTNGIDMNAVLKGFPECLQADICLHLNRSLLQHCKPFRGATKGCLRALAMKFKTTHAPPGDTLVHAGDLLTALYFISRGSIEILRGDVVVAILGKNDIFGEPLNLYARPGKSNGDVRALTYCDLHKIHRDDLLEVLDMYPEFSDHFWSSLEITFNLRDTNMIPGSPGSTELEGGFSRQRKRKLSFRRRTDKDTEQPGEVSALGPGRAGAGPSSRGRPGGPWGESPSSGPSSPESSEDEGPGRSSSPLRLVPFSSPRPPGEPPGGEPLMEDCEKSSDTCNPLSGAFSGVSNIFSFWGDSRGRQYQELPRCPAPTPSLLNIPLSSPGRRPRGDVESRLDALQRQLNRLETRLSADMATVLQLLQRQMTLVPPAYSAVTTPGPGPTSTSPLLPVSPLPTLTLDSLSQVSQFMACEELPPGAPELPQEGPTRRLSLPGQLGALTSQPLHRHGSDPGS

Q: Which “hERG current change (%, negative = inhibition) at 1uM” value does the source give for `CN(CC(=O)N1CCCc2c1c(=O)oc1ccc(O)cc21)Cc1ccccc1` here?
A: -38.4%

Q: With `CCCCc1ccc(CC2S/C(=C(\C#N)C(=O)N3CCOCC3)N(c3ccccc3)C2=O)cc1` (stereo not shown) as the compound, how does the “hERG current change (%, negative = inhibition) at 1uM” value read?
A: 11.2%

Q: Which “hERG current change (%, negative = inhibition) at 1uM” value does the source give for `Cc1ccccc1CSc1nc2n(n1)C(c1cccs1)C1=C(CCCC1=O)N2` (stereo not shown) here?
A: 5.9%

Q: `Cc1ccc(-c2noc(CN3CCN(c4ccccc4F)CC3)n2)cc1` was tested. Which “hERG current change (%, negative = inhibition) at 1uM” value did it give?
A: 10.9%

Q: `COC(=O)c1sccc1NC(=S)Nc1cc(OC)ccc1OC` was tested. Which “hERG current change (%, negative = inhibition) at 1uM” value did it give?
A: 5.04%

Q: How did the “hERG current change (%, negative = inhibition) at 1uM” value turn out when `Cc1nnc2n1CCCCC2` was run?
A: 14.4%

Q: `Cn1c(=O)c(-c2ccccc2[N+](=O)[O-])c(Cl)c2ccccc21` was tested. Which “hERG current change (%, negative = inhibition) at 1uM” value did it give?
A: 4.96%

Q: How did the “hERG current change (%, negative = inhibition) at 1uM” value turn out when `O=C(/C=C/Nc1ccccc1F)c1cccs1` was run?
A: 9.7%

Q: Which “hERG current change (%, negative = inhibition) at 1uM” value does the source give for `CSCC[C@H](N)C(=O)N1CCC(C(=O)N[C@@H](C)C(=O)NCc2ccc(F)cc2)CC1` here?
A: 4.39%

Q: For `Cc1cnc(C(=O)OCC(=O)Nc2cc(Cl)cc(Cl)c2)cn1`, which “hERG current change (%, negative = inhibition) at 1uM” value is on record?
A: 23.8%

Q: For `O=C(c1cccs1)N1CCN(c2ccc([N+](=O)[O-])cc2F)CC1`, which “hERG current change (%, negative = inhibition) at 1uM” value is on record?
A: -21.3%

Q: With `O=C(CNC(=O)C12CC3CC(CC(C3)C1)C2)NC1=NCCS1` as the compound, how does the “hERG current change (%, negative = inhibition) at 1uM” value read?
A: 12.3%

Q: For `CCOC(=O)CON1C(=O)C(=O)N(OCC(=O)OCC)[C@H]2CCCC[C@H]21`, which “hERG current change (%, negative = inhibition) at 1uM” value is on record?
A: 11.8%

Q: For `COCC(C)N=C1NN=C(c2cc(C)n(Cc3ccccc3Cl)c2C)CS1` (stereo not shown), which “hERG current change (%, negative = inhibition) at 1uM” value is on record?
A: 4.93%

Q: Which “hERG current change (%, negative = inhibition) at 1uM” value does the source give for `COc1ccc(S(=O)(=O)NCc2csc(-c3cccnc3)n2)cc1` here?
A: 4.72%

Q: How did the “hERG current change (%, negative = inhibition) at 1uM” value turn out when `CCCCCC1CC(CC/C(C)=N/NC(N)=O)C(=O)O1` (stereo not shown) was run?
A: -5.45%

Q: For `C=CCn1c(SCC(=O)NC2CCCCC2)nnc1C1CCCCC1`, which “hERG current change (%, negative = inhibition) at 1uM” value is on record?
A: 5.34%

Q: For `O=C(NCCN1CCOCC1)c1ccc2c(c1)N(Cc1ccc(F)cc1)C(=O)c1ccccc1S2(=O)=O`, which “hERG current change (%, negative = inhibition) at 1uM” value is on record?
A: 13.2%

Q: For `Cc1ccc(CCNC(=O)C2CCC(CNc3c(N4CCCC4)c(=O)c3=O)CC2)cc1` (stereo not shown), which “hERG current change (%, negative = inhibition) at 1uM” value is on record?
A: 14.4%

Q: With `O=[N+]([O-])c1cccc(C(=S)N2CCN(c3ccc(F)cc3)CC2)c1` as the compound, how does the “hERG current change (%, negative = inhibition) at 1uM” value read?
A: 2.44%

Q: Which “hERG current change (%, negative = inhibition) at 1uM” value does the source give for `O=C(C1=NN[C@@H]2C(=O)N(c3cccc(F)c3)C(=O)[C@H]12)c1cnccn1` here?
A: 6.48%

Q: For `N#Cc1cc(-c2ccccc2)cnc1Cl`, which “hERG current change (%, negative = inhibition) at 1uM” value is on record?
A: 9.01%

Q: How did the “hERG current change (%, negative = inhibition) at 1uM” value turn out when `CCOC(=O)C(C)Oc1cccc2c(=O)n(CC(=O)N3CCc4ccccc43)ccc12` (stereo not shown) was run?
A: 5.03%

Q: For `CCOC(=O)CN1C(=O)C(=O)N(Cc2ccccc2)C1=O`, which “hERG current change (%, negative = inhibition) at 1uM” value is on record?
A: 14.2%

Q: Which “hERG current change (%, negative = inhibition) at 1uM” value does the source give for `CC(=O)Nc1ccc(S(=O)(=O)CCC#N)cc1` here?
A: 4.04%
